{"source": "the supplement of paper PMC8728848", "binders": {"B1": {"name": "Gz-CVNH (Gibberella zeae) (protein)", "chain": "MGSSHHHHHHSSGLVPRGSHMGNFHESSNNIWLEDGHILHAECGNGEGDYVESTLDLDYYIGNDDGSFSWGGENFSGSASNITLDIEGDDNIPVLRAELNPMDGDPVEANVNLSERIGNDCGTLIFLA"}}, "experiment_in_all_cases": "glycan array binding signal (z-score within array); higher = stronger binding", "conditions_in_all_cases": "glycan notation: IUPAC condensed, linker removed", "key": {"[1]": {"target": "Man(a1-2)Man(a1-6)[Man(a1-3)]Man(a1-6)[Man(a1-2)Man(a1-2)Man(a1-3)]Man(b1-4)GlcNAc(b1-4)GlcNAc", "method_in_brief": "(§1)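 Glycan array binding is given as a within-array Z-score, which can be read as non-binding when negative. The arrays, 3228 of them, came from the Consortium for Functional Glycomics database and were retained only where the protein sequence was available. Z-scores were averaged across arrays of the same protein sequence at different concentrations or buffers and across linkers.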"}, "Man(a1-3)[Man(a1-6)]Man": {"target": "Man(a1-3)[Man(a1-6)]Man", "method_in_brief": "as §1"}, "[2]": {"target": "Man(a1-3)[Man(a1-6)]Man(a1-6)[Man(a1-2)Man(a1-3)]Man(b1-4)GlcNAc(b1-4)GlcNAc", "method_in_brief": "as §1"}, "[3]": {"target": "Man(a1-3)[Man(a1-6)]Man(a1-6)[Man(a1-3)]Man", "method_in_brief": "as §1"}, "[4]": {"target": "Man(a1-3)[Man(a1-6)]Man(a1-6)[Man(a1-3)]Man(b1-4)GlcNAc(b1-4)GlcNAc", "method_in_brief": "as §1"}, "[5]": {"target": "Man(a1-3)[Man(a1-6)]Man(b1-4)GlcNAc(b1-4)GlcNAc", "method_in_brief": "as §1"}, "Man(a1-6)Man": {"target": "Man(a1-6)Man", "method_in_brief": "as §1"}, "Man(b1-4)GlcNAc": {"target": "Man(b1-4)GlcNAc", "method_in_brief": "as §1"}, "Neu5Ac(a2-3)Gal": {"target": "Neu5Ac(a2-3)Gal", "method_in_brief": "as §1"}, "[6]": {"target": "Neu5Ac(a2-3)Gal(b1-3)GalNAc", "method_in_brief": "as §1"}, "[7]": {"target": "Neu5Ac(a2-3)Gal(b1-3)GalNAc(b1-3)Gal(a1-4)Gal(b1-4)Glc", "method_in_brief": "as §1"}, "[8]": {"target": "Neu5Ac(a2-3)Gal(b1-3)GalNAc(b1-4)[Neu5Ac(a2-3)]Gal(b1-4)Glc", "method_in_brief": "as §1"}, "[9]": {"target": "Neu5Ac(a2-3)Gal(b1-3)GalNAc(b1-4)[Neu5Ac(a2-8)Neu5Ac(a2-3)]Gal(b1-4)Glc", "method_in_brief": "as §1"}, "[10]": {"target": "Neu5Ac(a2-3)Gal(b1-3)GalNAc6S", "method_in_brief": "as §1"}, "[11]": {"target": "Neu5Ac(a2-3)Gal(b1-3)GlcNAc", "method_in_brief": "as §1"}, "[12]": {"target": "Neu5Ac(a2-3)Gal(b1-3)GlcNAc(b1-3)Gal(b1-3)GlcNAc", "method_in_brief": "as §1"}, "[13]": {"target": "Neu5Ac(a2-3)Gal(b1-3)GlcNAc(b1-3)Gal(b1-4)GlcNAc", "method_in_brief": "as §1"}, "[14]": {"target": "Neu5Ac(a2-3)Gal(b1-3)GlcNAc(b1-3)GalNAc", "method_in_brief": "as §1"}, "[15]": {"target": "Neu5Ac(a2-3)Gal(b1-3)GlcNAc6S", "method_in_brief": "as §1"}, "[16]": {"target": "Neu5Ac(a2-3)Gal(b1-3)[Fuc(a1-4)]GlcNAc", "method_in_brief": "as §1"}, "[17]": {"target": "Neu5Ac(a2-3)Gal(b1-3)[Fuc(a1-4)]GlcNAc(b1-3)Gal(b1-3)[Fuc(a1-4)]GlcNAc", "method_in_brief": "as §1"}, "[18]": {"target": "Neu5Ac(a2-3)Gal(b1-3)[Fuc(a1-4)]GlcNAc(b1-3)Gal(b1-4)[Fuc(a1-3)]GlcNAc", "method_in_brief": "as §1"}, "[19]": {"target": "Neu5Ac(a2-3)Gal(b1-3)[Neu5Ac(a2-3)Gal(b1-4)]GlcNAc", "method_in_brief": "as §1"}, "[20]": {"target": "Neu5Ac(a2-3)Gal(b1-3)[Neu5Ac(a2-6)]GalNAc", "method_in_brief": "as §1"}, "Neu5Ac(a2-3)Gal(b1-4)Glc": {"target": "Neu5Ac(a2-3)Gal(b1-4)Glc", "method_in_brief": "as §1"}, "[21]": {"target": "Neu5Ac(a2-3)Gal(b1-4)GlcNAc", "method_in_brief": "as §1"}, "[22]": {"target": "Neu5Ac(a2-3)Gal(b1-4)GlcNAc(b1-2)Man(a1-3)[GlcNAc(b1-2)Man(b1-4)GlcNAc(b1-2)Man(a1-6)]Man(b1-4)GlcNAc(b1-4)GlcNAc", "method_in_brief": "as §1"}, "[23]": {"target": "Neu5Ac(a2-3)Gal(b1-4)GlcNAc(b1-2)Man(a1-3)[Neu5Ac(a2-6)Gal(b1-4)GlcNAc(b1-2)Man(a1-6)]Man(b1-4)GlcNAc(b1-4)GlcNAc", "method_in_brief": "as §1"}, "[24]": {"target": "Neu5Ac(a2-3)Gal(b1-4)GlcNAc(b1-3)Gal", "method_in_brief": "as §1"}, "[25]": {"target": "Neu5Ac(a2-3)Gal(b1-4)GlcNAc(b1-3)Gal(b1-3)GlcNAc", "method_in_brief": "as §1"}, "[26]": {"target": "Neu5Ac(a2-3)Gal(b1-4)GlcNAc(b1-3)Gal(b1-4)GlcNAc", "method_in_brief": "as §1"}, "[27]": {"target": "Neu5Ac(a2-3)Gal(b1-4)GlcNAc(b1-3)Gal(b1-4)GlcNAc(b1-3)Gal(b1-4)GlcNAc", "method_in_brief": "as §1"}, "[28]": {"target": "Neu5Ac(a2-3)Gal(b1-4)GlcNAc(b1-3)Gal(b1-4)[Fuc(a1-3)]GlcNAc", "method_in_brief": "as §1"}}, "note": "This is one part of the list.", "data": [{"binder": "B1", "values": [{"measurement": "glycan array binding signal (z-score)", "setting": "[1]", "value": 8.33}, {"measurement": "glycan array binding signal (z-score)", "setting": "Man(a1-3)[Man(a1-6)]Man", "value": -0.137}, {"measurement": "glycan array binding signal (z-score)", "setting": "[2]", "value": 1.34}, {"measurement": "glycan array binding signal (z-score)", "setting": "[3]", "value": -0.133}, {"measurement": "glycan array binding signal (z-score)", "setting": "[4]", "value": 0.15}, {"measurement": "glycan array binding signal (z-score)", "setting": "[5]", "value": -0.119}, {"measurement": "glycan array binding signal (z-score)", "setting": "Man(a1-6)Man", "value": -0.129}, {"measurement": "glycan array binding signal (z-score)", "setting": "Man(b1-4)GlcNAc", "value": -0.177}, {"measurement": "glycan array binding signal (z-score)", "setting": "Neu5Ac(a2-3)Gal", "value": -0.14}, {"measurement": "glycan array binding signal (z-score)", "setting": "[6]", "value": -0.069}, {"measurement": "glycan array binding signal (z-score)", "setting": "[7]", "value": -0.112}, {"measurement": "glycan array binding signal (z-score)", "setting": "[8]", "value": -0.097}, {"measurement": "glycan array binding signal (z-score)", "setting": "[9]", "value": -0.141}, {"measurement": "glycan array binding signal (z-score)", "setting": "[10]", "value": -0.119}, {"measurement": "glycan array binding signal (z-score)", "setting": "[11]", "value": -0.131}, {"measurement": "glycan array binding signal (z-score)", "setting": "[12]", "value": -0.158}, {"measurement": "glycan array binding signal (z-score)", "setting": "[13]", "value": -0.126}, {"measurement": "glycan array binding signal (z-score)", "setting": "[14]", "value": -0.173}, {"measurement": "glycan array binding signal (z-score)", "setting": "[15]", "value": -0.141}, {"measurement": "glycan array binding signal (z-score)", "setting": "[16]", "value": -0.159}, {"measurement": "glycan array binding signal (z-score)", "setting": "[17]", "value": -0.074}, {"measurement": "glycan array binding signal (z-score)", "setting": "[18]", "value": -0.092}, {"measurement": "glycan array binding signal (z-score)", "setting": "[19]", "value": -0.153}, {"measurement": "glycan array binding signal (z-score)", "setting": "[20]", "value": -0.098}, {"measurement": "glycan array binding signal (z-score)", "setting": "Neu5Ac(a2-3)Gal(b1-4)Glc", "value": -0.125}, {"measurement": "glycan array binding signal (z-score)", "setting": "[21]", "value": -0.145}, {"measurement": "glycan array binding signal (z-score)", "setting": "[22]", "value": -0.137}, {"measurement": "glycan array binding signal (z-score)", "setting": "[23]", "value": -0.143}, {"measurement": "glycan array binding signal (z-score)", "setting": "[24]", "value": -0.095}, {"measurement": "glycan array binding signal (z-score)", "setting": "[25]", "value": -0.154}, {"measurement": "glycan array binding signal (z-score)", "setting": "[26]", "value": -0.128}, {"measurement": "glycan array binding signal (z-score)", "setting": "[27]", "value": -0.115}, {"measurement": "glycan array binding signal (z-score)", "setting": "[28]", "value": -0.121}]}]}
